A number of entries come with more than one value. The list is limited to them.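 Rule for the calls: active = insulin-degrading enzyme inhibitors with IC50 at or below 10 µM; inactive = the rest.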 The source may hold further records. Values given together are repeated measurements (runs, samples, wells, individuals or studies). Records carry a tag for their origin. A, B and so on number the origins entry by entry.
Target: Insulin-degrading enzyme (Homo sapiens) (UniProt P14735)
Experiment: IDE inhibitors, wild-type enzyme, late-stage follow-up, counter-screen for IDE inhibitor project, biochemical, fluorescence polarization, FAbetaB substrate, round 2 (AID 624353)
Conditions: recombinant IDE, FAbetaB cleavage
Procedure, shortened: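 Material: recombinant wild-type insulin-degrading enzyme (IDE), purified enzyme. Amount: 1 nM IDE. Reagent: fluorescein-Aβ-biotin peptide substrate, 100 nM. Incubation: reaction at room temperature. Detection: fluorescence polarization, ex 485 nm, em 525 nm. Read-out basis: IC50 from sigmoidal fit of percent inhibition versus DMSO and Ii1 controls. Replicates: each compound dose-response run in triplicate.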

Chain of UniProt P14735 (P14735 whole entry, looked up): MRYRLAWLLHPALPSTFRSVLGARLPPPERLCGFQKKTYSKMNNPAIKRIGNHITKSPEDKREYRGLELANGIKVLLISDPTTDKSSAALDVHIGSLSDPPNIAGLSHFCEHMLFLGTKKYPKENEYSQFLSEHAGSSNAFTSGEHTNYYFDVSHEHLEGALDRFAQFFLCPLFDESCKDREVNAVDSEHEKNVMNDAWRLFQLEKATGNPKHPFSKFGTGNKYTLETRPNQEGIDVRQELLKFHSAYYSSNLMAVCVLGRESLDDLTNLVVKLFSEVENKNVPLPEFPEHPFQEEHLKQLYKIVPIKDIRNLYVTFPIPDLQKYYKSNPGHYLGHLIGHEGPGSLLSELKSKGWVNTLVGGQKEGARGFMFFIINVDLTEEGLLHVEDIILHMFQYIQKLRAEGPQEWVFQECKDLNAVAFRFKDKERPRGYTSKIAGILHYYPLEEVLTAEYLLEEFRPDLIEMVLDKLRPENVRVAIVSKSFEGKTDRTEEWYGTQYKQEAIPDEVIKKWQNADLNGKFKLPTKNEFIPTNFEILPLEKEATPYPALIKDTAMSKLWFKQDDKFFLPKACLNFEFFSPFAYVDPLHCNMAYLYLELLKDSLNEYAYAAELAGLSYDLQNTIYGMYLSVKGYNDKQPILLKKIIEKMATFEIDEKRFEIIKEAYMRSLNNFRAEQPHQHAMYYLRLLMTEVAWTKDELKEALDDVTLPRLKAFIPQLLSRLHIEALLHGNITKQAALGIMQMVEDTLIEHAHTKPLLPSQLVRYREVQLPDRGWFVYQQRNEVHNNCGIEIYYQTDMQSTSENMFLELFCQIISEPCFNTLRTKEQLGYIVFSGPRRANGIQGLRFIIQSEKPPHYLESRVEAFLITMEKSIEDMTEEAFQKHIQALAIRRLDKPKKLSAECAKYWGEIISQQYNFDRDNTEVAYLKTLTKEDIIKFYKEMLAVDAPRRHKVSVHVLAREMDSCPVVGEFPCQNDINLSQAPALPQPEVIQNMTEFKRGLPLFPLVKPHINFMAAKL

COc1ccc(C(=O)N2CCN(C(=O)C3COc4ccccc4O3)CC2)cc1 (stereo unspecified)
IC50: inactive [sample A] and inactive: > 33 µM [sample B]

From PubChem BioAssay AID624353 (The Scripps Research Institute Molecular Screening Center, 2012)
